Test results taken from patent publication US20210346432A1 (Memorial Sloan Kettering, published 2021).

Molecular target: T1, mouse BCMA (mouse, UniProt O88472 1-49, limits assumed)
T1 chain (looked up): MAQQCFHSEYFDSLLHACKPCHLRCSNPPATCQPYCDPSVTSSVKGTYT
Test: ELISA (OD450), single point, coats human BCMA, mouse BCMA, blank

B1: ET140-163 (scFv)
scFv: QPVLTQPPSASASLGASVTLTCTLSNDYTNYKVDWYQQRPGKGPRFVMRVGPGGIVGSKGDGIPDRFSVLGSGLNRYLTIKNIQEEDESDYHCGADHGTGSNFVYVFGGGTKLTVLGSRGGGGSGGGGSGGGGSLEMA[letters of about 100 residues omitted]SSYHLYGYDSWGQGTLVTVSS
notes: also called ET140-163 scFv; ET140-13 scFv
B1: no binding.
